{
  "source": "paper PMC5836133",
  "note": "This is one part of the list. At the low end of the ranking the order means little.",
  "data": [
    {"test_system": "T1, GST-NbGlk1(82-244)", "T1 sequence": "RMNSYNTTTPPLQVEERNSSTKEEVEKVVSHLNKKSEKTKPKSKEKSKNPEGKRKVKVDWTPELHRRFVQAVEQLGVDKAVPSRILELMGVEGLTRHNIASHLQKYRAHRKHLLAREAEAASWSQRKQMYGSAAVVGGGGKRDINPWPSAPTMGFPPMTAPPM", "assay": "protein-binding microarray;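 note: rank-based score ranging −0.5 to +0.5 with E above 0.45 taken as significant binding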", "conditions": "NbGlk1 is a Golden2-like transcription factor of Nicotiana benthamiana; high values mean tight binding; most listed sequences are background and not binding sites; double strand, one strand shown", "units": {"binding signal": "E-score"}, "values": [
      {"sequence": "AGTGACTA", "binding signal": -0.126},
      {"sequence": "ATTAATGA", "binding signal": 0.119},
      {"sequence": "AAGCGTGG", "binding signal": -0.176},
      {"sequence": "ACTCACCA", "binding signal": -0.057},
      {"sequence": "ATAGCGTG", "binding signal": 0.000991},
      {"sequence": "AAATCTGT", "binding signal": 0.446},
      {"sequence": "ACCGGTAC", "binding signal": -0.213},
      {"sequence": "ACAAGGAC", "binding signal": -0.14},
      {"sequence": "ACTTGAAA", "binding signal": 0.123},
      {"sequence": "ACCTCTTC", "binding signal": -0.16},
      {"sequence": "ATTCTGAG", "binding signal": 0.196},
      {"sequence": "AACAAATG", "binding signal": -0.0396},
      {"sequence": "ATCGCCTA", "binding signal": 0.229},
      {"sequence": "ATCATCAA", "binding signal": 0.0811},
      {"sequence": "ACGTTGGG", "binding signal": -0.103},
      {"sequence": "ACCCGAGG", "binding signal": -0.0907},
      {"sequence": "AAGAGTAC", "binding signal": -0.242},
      {"sequence": "AGTCAACT", "binding signal": -0.157},
      {"sequence": "AACTGTCT", "binding signal": -0.0952},
      {"sequence": "ATGAAGGC", "binding signal": -0.0808},
      {"sequence": "AAGTGGCT", "binding signal": -0.217},
      {"sequence": "AGGTCAGC", "binding signal": -0.249},
      {"sequence": "ACTCTTTG", "binding signal": -0.0325},
      {"sequence": "AGTTTACG", "binding signal": -0.12},
      {"sequence": "AGCAGTCA", "binding signal": 0.0204},
      {"sequence": "ACGTAGTG", "binding signal": -0.103},
      {"sequence": "AATCATGG", "binding signal": 0.258},
      {"sequence": "AACTTAAC", "binding signal": 0.00674},
      {"sequence": "CAAGTGTA", "binding signal": -0.138},
      {"sequence": "AATGCGTC", "binding signal": 0.0232},
      {"sequence": "ACCCCCGA", "binding signal": -0.101},
      {"sequence": "AACCCACA", "binding signal": -0.0413},
      {"sequence": "AAAAAGTG", "binding signal": 0.0191},
      {"sequence": "AACTGCTG", "binding signal": -0.104},
      {"sequence": "ACATGGCC", "binding signal": -0.287},
      {"sequence": "ATTGAAGC", "binding signal": -0.106},
      {"sequence": "CAATCGTA", "binding signal": 0.235},
      {"sequence": "AAAGAGTC", "binding signal": -0.115},
      {"sequence": "ATTAAATC", "binding signal": 0.217},
      {"sequence": "CACCCGCA", "binding signal": -0.0935},
      {"sequence": "ACATAGGT", "binding signal": 0.00977},
      {"sequence": "AAAGCACG", "binding signal": 0.0103},
      {"sequence": "ACAGGAGA", "binding signal": 0.0464},
      {"sequence": "AAGATTCT", "binding signal": 0.452},
      {"sequence": "ACGTTATC", "binding signal": 0.0824},
      {"sequence": "AACAATGC", "binding signal": -0.107},
      {"sequence": "ATGATAAG", "binding signal": 0.0311},
      {"sequence": "CAAACCAG", "binding signal": 0.0874},
      {"sequence": "AGGCCAGC", "binding signal": -0.308},
      {"sequence": "ACAAGACT", "binding signal": -0.131},
      {"sequence": "AGCAGATG", "binding signal": -0.0683},
      {"sequence": "CACTGTAC", "binding signal": -0.138},
      {"sequence": "AATACATC", "binding signal": 0.0093},
      {"sequence": "AATAGTCG", "binding signal": 0.00642},
      {"sequence": "ACCCTGGG", "binding signal": -0.132},
      {"sequence": "AACCAGTG", "binding signal": -0.174},
      {"sequence": "AAGCAGGC", "binding signal": -0.249},
      {"sequence": "AAAACTGG", "binding signal": -0.0736},
      {"sequence": "AGAACCCG", "binding signal": -0.173},
      {"sequence": "ATCTATCA", "binding signal": 0.276},
      {"sequence": "AGCTAGGC", "binding signal": -0.179},
      {"sequence": "ATCCTCTG", "binding signal": 0.3},
      {"sequence": "AGAACGAG", "binding signal": -0.188},
      {"sequence": "AGTGCTGA", "binding signal": -0.159},
      {"sequence": "AGTGGCTC", "binding signal": -0.223},
      {"sequence": "AAAGCTGT", "binding signal": 0.116},
      {"sequence": "CAGACGTA", "binding signal": -0.0408},
      {"sequence": "AGCGACAC", "binding signal": -0.0946},
      {"sequence": "CAATCGCA", "binding signal": 0.23},
      {"sequence": "ACTAATAT", "binding signal": 0.209},
      {"sequence": "CAAGGTAG", "binding signal": -0.0891},
      {"sequence": "CAAGTCCA", "binding signal": -0.0826},
      {"sequence": "ACGGCGCG", "binding signal": -0.122},
      {"sequence": "AGTCCGAC", "binding signal": -0.0743},
      {"sequence": "ACTGCCCT", "binding signal": -0.171},
      {"sequence": "ACACTCTG", "binding signal": -0.0476},
      {"sequence": "CAAGGACG", "binding signal": -0.245},
      {"sequence": "AGTGACAA", "binding signal": -0.0339},
      {"sequence": "ACGATACT", "binding signal": 0.194},
      {"sequence": "ATACTCCC", "binding signal": 0.0901},
      {"sequence": "CAATTTAC", "binding signal": 0.11},
      {"sequence": "AGTGGCCC", "binding signal": -0.334},
      {"sequence": "ATGGTTTC", "binding signal": -0.0215},
      {"sequence": "ATACGTAG", "binding signal": 0.0166},
      {"sequence": "ATACTAGA", "binding signal": 0.139},
      {"sequence": "AACACAGG", "binding signal": -0.033},
      {"sequence": "AAGCTGAG", "binding signal": -0.149},
      {"sequence": "ACGTTGAT", "binding signal": 0.0571},
      {"sequence": "AACGATGA", "binding signal": -0.0136},
      {"sequence": "ATGGAATG", "binding signal": -0.0857},
      {"sequence": "AGACGGAG", "binding signal": -0.167},
      {"sequence": "AGTGCCCA", "binding signal": -0.196},
      {"sequence": "AAAACCCT", "binding signal": -0.146},
      {"sequence": "AGTTAGCG", "binding signal": -0.0309},
      {"sequence": "AGTTAGTG", "binding signal": 0.025},
      {"sequence": "AGCAACCT", "binding signal": -0.202},
      {"sequence": "ACTGGTGC", "binding signal": -0.197},
      {"sequence": "AAGAGAGC", "binding signal": -0.185},
      {"sequence": "AACACGCT", "binding signal": -0.11},
      {"sequence": "ATCACTCC", "binding signal": -0.00107},
      {"sequence": "AATCTTCA", "binding signal": 0.388},
      {"sequence": "AAGATGAC", "binding signal": -0.0149},
      {"sequence": "CAATATAC", "binding signal": 0.186},
      {"sequence": "ACGGCTAA", "binding signal": -0.0623},
      {"sequence": "ACGGCGTG", "binding signal": -0.153},
      {"sequence": "AAGCTTCG", "binding signal": -0.0971},
      {"sequence": "AGCACGTG", "binding signal": -0.115},
      {"sequence": "ATTCGTCG", "binding signal": 0.209},
      {"sequence": "AACGTTAT", "binding signal": 0.0462}
    ]}
  ]
}
